These results are taken from publication PMC10668032.

This is one part of the list. At the low end of the ranking the order means little.

The target of the test is SIX1-Q177R homeodomain (UniProt Q15475). The test is described as follows: universal protein binding microarray. To be noted: Universal all-10-mer PBM (8x60K, AMADID 030236), 300 nM GST-tagged protein, Alexa Fluor 488 anti-GST; buffer, salt, pH and temperature not stated; high values mean tight binding; most listed sequences are background and not binding sites; double strand, one strand shown.
Regarding CCTTGGAC, the binding signal is -0.0763 E-score. Regarding GCTGGACC, the binding signal is -0.0526 E-score.

Regarding CGGGCACA, the binding signal was found to be 0.199 E-score.

Take CAGACCGA: the binding signal was -0.116 E-score.

As for CTCTCCTC, the binding signal was -0.0725 E-score.

As for GCCCCCGC, the binding signal came to 0.109 E-score. For the sequence AGCCCATC, the binding signal was -0.068 E-score.

As to GCCAGAGA, the binding signal was -0.159 E-score. The result for CGGTGCTA reads 0.2 E-score; that for ATGTATCC, 0.00305 E-score.

Consider AAGGCACT, for which the binding signal is -0.0806 E-score. For the sequence CTCGCTAC, the binding signal was -0.0754 E-score. As for GAGTGAGA, the binding signal came to 0.0347 E-score. In the case of ACTAGTCC, the binding signal was -0.0784 E-score. On to AACTTTGG, for which the binding signal is -0.0984 E-score. Take CGCTGAAC: the binding signal was -0.111 E-score. Turning to CTAGACAG, the binding signal was -0.084 E-score. As for AATAGTCA, the figure is -0.176 E-score; as for CCCACCAC, 0.158 E-score.

Regarding AGATGGTA, the binding signal was -0.0721 E-score. On to ATTCACGC, for which the binding signal was -0.0357 E-score.

For CTCTGCTC, the binding signal was -0.197 E-score.

Take CACGGATG: the binding signal was found to be 0.155 E-score. CCATCGTA: the binding signal is 0.0875 E-score. In the case of AAGTGGTA, the binding signal is -0.0332 E-score. Consider ATACCTAG, for which the binding signal worked out at 0.196 E-score. On to AGCGTGCA, for which the binding signal came to 0.0729 E-score.

With ATGCCCAG, the binding signal is -0.0933 E-score. As for ACAGTGCG, the figure is -0.102 E-score; as for CGTGGGTA, 0.00698 E-score; as for CTCAAGAA, -0.0711 E-score. Take AGAGAGCG: the binding signal was -0.227 E-score. In the case of CTCTATCC, the binding signal was 0.037 E-score. The result for GAACGCGC reads 0.0768 E-score. As for TAGGTCGA, the figure is 0.034 E-score; as for AGGCGAGC, -0.00503 E-score; as for CCCGATAC, 0.293 E-score. In the case of CCGCCTCA, the binding signal is -0.0946 E-score. In the case of ACAGAAAG, the binding signal is -0.164 E-score. As to ACTGCGTC, the binding signal was -0.12 E-score. As for GCCTGGGA, the figure is -0.02 E-score; as for ATGACCTC, -0.126 E-score; as for CGCATGCA, 0.0964 E-score. The result for TAGGAATA reads -0.124 E-score; that for ATAGGGAA, -0.0588 E-score; that for CGCACCGA, 0.149 E-score. As for ACAGCGAT, the binding signal is -0.233 E-score.

For TATATGCA, the binding signal came to 0.0411 E-score. The result for ATTGACTG reads -0.106 E-score; that for ACGGGAGT, 0.186 E-score. Turning to AGTTCAAT, the binding signal is -0.22 E-score. CCGTTTTA: the binding signal is -0.126 E-score. As for ACTATGAT, the figure is -0.138 E-score; as for ACAACAGT, -0.0519 E-score. Consider GCGGTCAC, for which the binding signal is -0.0825 E-score. On to GTATGGAC, for which the binding signal was 0.0376 E-score. As to TAAGGAAA, the binding signal is -0.376 E-score. For AACGAATT, the binding signal is -0.21 E-score. The result for CGTCTCTA reads -0.23 E-score. Regarding GCAAAACC, the binding signal is -0.145 E-score.

As to CACAATTC, the binding signal amounted to 0.0566 E-score. As for GACCTGGC, the binding signal was -0.0774 E-score. With CCACACCC, the binding signal is 0.393 E-score. Consider CACTGGTA, for which the binding signal was found to be 0.313 E-score. Regarding CAAACGAA, the binding signal was -0.149 E-score. As to ACTACAAC, the binding signal turned out to be 0.0769 E-score. As for AAGTTATC, the figure is -0.0286 E-score.

As for ATGTGGTA, the binding signal was -0.0315 E-score. As to CAAACCTG, the binding signal is -0.0421 E-score. Turning to CGGCTGAA, the binding signal was -0.0912 E-score. ACTTAATG: the binding signal amounted to 0.219 E-score. As to ACACCTAG, the binding signal stood at 0.445 E-score. As for CGCGTTGC, the binding signal is -0.0153 E-score. Take GATGACGC: the binding signal was -0.0158 E-score. As to CGCATGAA, the binding signal was -0.129 E-score. As for CGTGCGGC, the binding signal was -0.0226 E-score. With AACTGAAA, the binding signal is -0.0723 E-score. With ATCTGTTA, the binding signal was -0.13 E-score.

As to CTCGCCTA, the binding signal is -0.0855 E-score.

As for ATCAATCG, the binding signal was found to be 0.0586 E-score. With ATACAGCG, the binding signal was -0.105 E-score. Consider ACAATCTG, for which the binding signal was -0.0678 E-score. With CATTCAAC, the binding signal is -0.0658 E-score. As for AATAATTC, the binding signal is -0.073 E-score. The result for ACCACGAG reads -0.00694 E-score. As to CCCTACGG, the binding signal came to 0.109 E-score.

Regarding AATCCCCA, the binding signal was 0.168 E-score. Consider ACAGGCAT, for which the binding signal is -0.233 E-score.

GCTGTGCA: the binding signal is -0.0736 E-score.

As for AATTTGCG, the binding signal was -0.103 E-score. The result for AAGAGTTG reads -0.167 E-score.

Take CAGGTCCA: the binding signal is -0.125 E-score. Regarding GGCCCGCC, the binding signal was -0.0113 E-score.

As for ACGTACAG, the binding signal is -0.0459 E-score. The result for GAGGTTAA reads -0.141 E-score. Consider TATACGCA, for which the binding signal is 0.0738 E-score.

In the case of CGAGCTAC, the binding signal is 0.00707 E-score. As for CACCCTGC, the binding signal is 0.293 E-score. In the case of TGGCCACA, the binding signal was determined as 0.175 E-score. Regarding CATATTAC, the binding signal came to 0.00553 E-score. For CTAGCGAA, the binding signal is -0.316 E-score. Regarding AAGGGGAA, the binding signal was -0.184 E-score. In the case of GTGTCCAA, the binding signal stood at 0.419 E-score.

On to GCACCCCA, for which the binding signal amounted to 0.257 E-score. As to GGCTCCTA, the binding signal is -0.0392 E-score.

Take GTGCATTA: the binding signal turned out to be 0.141 E-score. Regarding CCTCTAAC, the binding signal is -0.195 E-score.

With ATATTGTA, the binding signal is -0.0511 E-score.

Consider CCGACAAG, for which the binding signal was -0.18 E-score. For CGAAATAA, the binding signal is -0.0653 E-score. As for AGCTCTTC, the figure is -0.0189 E-score; as for CGTCAGAC, -0.00347 E-score.

For AAACACCG, the binding signal worked out at 0.465 E-score. As for ACGCTTCT, the figure is -0.0578 E-score. As for CCTCCTGC, the binding signal is -0.145 E-score.

Consider GTTGAAAA, for which the binding signal is -0.0803 E-score. In the case of CTCAATAA, the binding signal is -0.105 E-score. Consider CAACCACC, for which the binding signal was -0.122 E-score. For CTAGTAAG, the binding signal was -0.144 E-score. As for ATCCGCAA, the figure is -0.153 E-score; as for ATGTAAGC, -0.171 E-score. As for AACCATTC, the figure is -0.111 E-score; as for CCGATTCG, -0.0886 E-score; as for GAGTATTA, 0.0828 E-score.

ACTTAGGG: the binding signal was determined as 0.181 E-score. Turning to AATCGTCT, the binding signal was -0.18 E-score. For GGGACATA, the binding signal was -0.192 E-score. For the sequence AACGGGTG, the binding signal is 0.314 E-score. With AGGAGGGC, the binding signal is -0.0259 E-score. AAGGGCCG: the binding signal was -0.0604 E-score. Turning to CCAAACAC, the binding signal amounted to 0.383 E-score. As for CGAGCCTA, the figure is -0.0232 E-score; as for AGCGGAGA, -0.1 E-score. As for CTTGAGCC, the binding signal was -0.125 E-score. The result for CATGTAGG reads 0.0156 E-score; that for CTATTCAA, -0.14 E-score; that for CAAACGCG, -0.0431 E-score. With GCTAGAGC, the binding signal was -0.167 E-score. As for CCGGAACC, the figure is 0.0928 E-score; as for GCTACACA, 0.147 E-score; as for ACCGCCAC, 0.0484 E-score.

For CAGTGCCG, the binding signal was -0.0642 E-score. Consider CTTATAGC, for which the binding signal is -0.148 E-score. For AAAGTCTT, the binding signal was -0.328 E-score. The result for CGACGGAG reads 0.0393 E-score; that for GATTTATA, -0.0755 E-score. As for ACATGCAG, the figure is 0.00899 E-score. As for AAACATCA, the binding signal is -0.0223 E-score. In the case of AAGTGGAC, the binding signal was found to be 0.0215 E-score. As for GGCGGAAA, the figure is -0.0584 E-score; as for CGATGACA, 0.231 E-score; as for ATGAATTA, -0.145 E-score.

In the case of AAGACTTA, the binding signal was -0.281 E-score.

With GCAAACGC, the binding signal was -0.108 E-score. On to CAGTAAAA, for which the binding signal is -0.0731 E-score.

AGTGTTAA: the binding signal is 0.394 E-score.

On to TGTATGAA, for which the binding signal turned out to be 0.181 E-score. Take CACATGTG: the binding signal is -0.0488 E-score. Turning to AGTTTCGC, the binding signal is -0.216 E-score. For ACCAACTC, the binding signal turned out to be 0.169 E-score.

Turning to ATCCTGCC, the binding signal was 0.011 E-score. For AGAACGCA, the binding signal was -0.155 E-score. For the sequence ACCCCCTA, the binding signal came to 0.337 E-score. For the sequence ACCGCATA, the binding signal is 0.134 E-score. Take TCACGAGA: the binding signal is -0.00998 E-score. For GATGAGCC, the binding signal stood at 0.0214 E-score. Regarding AGGAATCG, the binding signal is -0.0258 E-score. For GCGCCAGA, the binding signal was -0.125 E-score. On to CATCCTCC, for which the binding signal was 0.0244 E-score. Consider ACCACAGA, for which the binding signal was 0.0287 E-score. As to AAAACATA, the binding signal is -0.139 E-score. In the case of ACGGGCGC, the binding signal was -0.00059 E-score.
